Assay results reported in PMC4439124, “Hairy/Enhancer-of-Split MEGANE and Proneural MASH1 Factors Cooperate Synergistically in Midbrain GABAergic Neurogenesis” (PLoS ONE, 2015).
No constants are given. Whether binding was seen depends on the method and setting. For part of these data: In cells and extracts the contact can be indirect. Some binding calls cover weakened binding; strength is not graded here. For part of these data: Where a sequence is shown, tags or fusion partners need not be part of it. Values belong to the binder of their own block, whether it stands above or below them.

Assays:
[1] = target: T1, MASH1, yeast two-hybrid fusion (mouse) (UniProt Q02067); experiment: two-hybrid; quantitative β-galactosidase assay on liquid cultures (X-gal; in parallel ONPG, absorbance at 420 nm), five independent transformants per pair, normalised against cell density and dilution
T1 sequence: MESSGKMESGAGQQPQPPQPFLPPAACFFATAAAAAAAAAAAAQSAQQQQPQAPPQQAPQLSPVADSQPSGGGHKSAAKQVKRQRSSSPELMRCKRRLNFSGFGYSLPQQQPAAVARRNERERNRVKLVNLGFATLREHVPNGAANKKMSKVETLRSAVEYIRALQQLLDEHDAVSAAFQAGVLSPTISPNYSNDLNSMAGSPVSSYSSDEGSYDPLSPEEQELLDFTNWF

[2] = target: T2, MGN (MEGANE), yeast two-hybrid fusion (mouse, UniProt Q7TS99 1-240); experiment: two-hybrid; 2-protein interaction assay in yeast: pGBKT7 baits in AH109 and pGADT7 preys in Y187, mated, diploids plated on SD/Ade- His- Leu- Trp-
T2 construct: The two Gal4 domains are alternatives: one fusion as bait (BD), another as prey (AD); also called Helt; BD-MGN; source: yeast two-hybrid fusion
T2 sequence (looked up): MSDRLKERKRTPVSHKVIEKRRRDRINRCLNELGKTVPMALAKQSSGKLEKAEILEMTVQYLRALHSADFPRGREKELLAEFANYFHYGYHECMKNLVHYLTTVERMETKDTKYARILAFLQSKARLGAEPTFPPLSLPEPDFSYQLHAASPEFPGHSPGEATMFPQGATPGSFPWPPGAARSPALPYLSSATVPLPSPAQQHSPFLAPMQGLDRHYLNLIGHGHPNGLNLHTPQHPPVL

[3] = target: T2, MGN (MEGANE), yeast two-hybrid fusion; experiment: two-hybrid; library screen (Matchmaker GAL4): BD-MGN bait against a cDNA library of E9-E10.5 mouse embryos in pGADT7, AH109 co-transformed, growth on SD/Ade- His- Leu- Trp- with 3 mM 3-AT at 30°C, colony-lift β-galactosidase assay; positives confirmed by α/a mating with the MGN bait
[4] = target: T2, MGN (MEGANE), yeast two-hybrid fusion; experiment: two-hybrid; growth of pair-wise yeast under increased stringency: 3-AT added to the media (5 mM and 15 mM plates, increasing concentrations)
[5] = target: T1, MASH1, yeast two-hybrid fusion (mouse); experiment: as above
[6] = target: T3, MGN, epitope-tagged fusion protein in HEK293 cells (mouse) (UniProt Q7TS99); experiment: co-IP; HEK293 cells transiently co-transfected with N-terminal FLAG- and N-terminal myc-tagged proteins (pcDNA3.1), 24-48 h, Protein G immunoprecipitation kit, western blot with anti-c-myc and anti-FLAG; anti-HA as negative control
T3 sequence: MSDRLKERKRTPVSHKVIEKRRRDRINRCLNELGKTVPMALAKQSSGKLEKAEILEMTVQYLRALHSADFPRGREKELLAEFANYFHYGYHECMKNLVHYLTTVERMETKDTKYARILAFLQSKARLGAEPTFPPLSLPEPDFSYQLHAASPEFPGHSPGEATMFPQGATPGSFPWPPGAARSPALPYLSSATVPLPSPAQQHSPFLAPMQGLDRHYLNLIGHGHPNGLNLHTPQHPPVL

[7] = target: T4, endogenous MGN (mouse (endogenous in E12.5 embryo midbrain)) (UniProt Q7TS99); experiment: co-IP; endogenous proteins, dMB and vMB of E12.5 wild-type mouse embryos homogenised in RIPA buffer with protease inhibitors, DNases and RNases; MASH1 or MGN antibodies cross-linked to magnetic G-beads, overnight, wash 120 mM NaCl, elution 100 mM glycine-HCl pH 2.5; western blot
T4 sequence: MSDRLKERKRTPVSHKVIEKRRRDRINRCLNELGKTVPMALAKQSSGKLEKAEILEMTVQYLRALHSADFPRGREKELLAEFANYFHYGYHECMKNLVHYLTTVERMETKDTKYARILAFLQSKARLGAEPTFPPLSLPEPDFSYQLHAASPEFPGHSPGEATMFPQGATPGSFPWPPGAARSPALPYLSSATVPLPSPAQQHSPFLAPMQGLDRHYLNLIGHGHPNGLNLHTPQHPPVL

[8] = target: T5, MGN expressed in mouse embryonic stem cells (mouse) (UniProt Q7TS99); experiment: co-IP; lysates of mouse ES cells electroporated with pCDNA3-1 Mgn and/or Mash1, extracted 24-48 h later; control for the Co-IP from brain tissue
T5 sequence: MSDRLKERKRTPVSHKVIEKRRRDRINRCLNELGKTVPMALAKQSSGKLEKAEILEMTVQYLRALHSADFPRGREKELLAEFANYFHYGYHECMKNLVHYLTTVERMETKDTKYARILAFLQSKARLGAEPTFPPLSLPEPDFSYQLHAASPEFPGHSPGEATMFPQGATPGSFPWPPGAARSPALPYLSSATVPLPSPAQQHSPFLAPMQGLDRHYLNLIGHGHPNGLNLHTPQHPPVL

[9] = target: T6, endogenous MASH1 (mouse (endogenous in E12.5 embryo midbrain)) (UniProt Q02067); experiment: co-IP; endogenous proteins, dMB and vMB of E12.5 wild-type mouse embryos homogenised in RIPA buffer with protease inhibitors, DNases and RNases; MASH1 or MGN antibodies cross-linked to magnetic G-beads, overnight, wash 120 mM NaCl, elution 100 mM glycine-HCl pH 2.5; western blot
T6 sequence: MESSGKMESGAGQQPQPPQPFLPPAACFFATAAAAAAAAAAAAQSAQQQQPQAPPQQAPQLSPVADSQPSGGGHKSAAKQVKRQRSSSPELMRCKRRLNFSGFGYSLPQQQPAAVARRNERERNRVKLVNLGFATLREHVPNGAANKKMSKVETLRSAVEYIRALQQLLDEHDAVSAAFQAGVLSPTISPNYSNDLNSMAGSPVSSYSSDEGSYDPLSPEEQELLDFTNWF

[10] = target: T2, MGN (MEGANE), yeast two-hybrid fusion; experiment: two-hybrid; quantitative β-galactosidase assay on liquid cultures (X-gal; in parallel ONPG, absorbance at 420 nm), five independent transformants per pair, normalised against cell density and dilution

B1: MASH1, yeast two-hybrid fusion (natural protein, mouse, UniProt Q02067 1-231, looked up)
chain: MESSGKMESGAGQQPQPPQPFLPPAACFFATAAAAAAAAAAAAQSAQQQQPQAPPQQAPQLSPVADSQPSGGGHKSAAKQVKRQRSSSPELMRCKRRLNFSGFGYSLPQQQPAAVARRNERERNRVKLVNLGFATLREHVPNGAANKKMSKVETLRSAVEYIRALQQLLDEHDAVSAAFQAGVLSPTISPNYSNDLNSMAGSPVSSYSSDEGSYDPLSPEEQELLDFTNWF
notes: The two Gal4 domains are alternatives: one fusion as bait (BD), another as prey (AD); also called Ascl1; MASH1-AD; source: yeast two-hybrid fusion
binding [1]: binds | binding [2]: binds | binding [3]: binds | binding [4]: binds | binding [5]: no binding (condition: in higher levels of 3-AT)

B2: MASH1, epitope-tagged fusion protein in HEK293 cells (protein, UniProt Q02067 1-231)
chain: MESSGKMESGAGQQPQPPQPFLPPAACFFATAAAAAAAAAAAAQSAQQQQPQAPPQQAPQLSPVADSQPSGGGHKSAAKQVKRQRSSSPELMRCKRRLNFSGFGYSLPQQQPAAVARRNERERNRVKLVNLGFATLREHVPNGAANKKMSKVETLRSAVEYIRALQQLLDEHDAVSAAFQAGVLSPTISPNYSNDLNSMAGSPVSSYSSDEGSYDPLSPEEQELLDFTNWF
binding [6]: binds

B4: MASH1 expressed in mouse embryonic stem cells (protein, UniProt Q02067 1-231)
chain: MESSGKMESGAGQQPQPPQPFLPPAACFFATAAAAAAAAAAAAQSAQQQQPQAPPQQAPQLSPVADSQPSGGGHKSAAKQVKRQRSSSPELMRCKRRLNFSGFGYSLPQQQPAAVARRNERERNRVKLVNLGFATLREHVPNGAANKKMSKVETLRSAVEYIRALQQLLDEHDAVSAAFQAGVLSPTISPNYSNDLNSMAGSPVSSYSSDEGSYDPLSPEEQELLDFTNWF
binding [8]: binds

B5: endogenous MGN (protein, UniProt Q7TS99 1-240)
chain: MSDRLKERKRTPVSHKVIEKRRRDRINRCLNELGKTVPMALAKQSSGKLEKAEILEMTVQYLRALHSADFPRGREKELLAEFANYFHYGYHECMKNLVHYLTTVERMETKDTKYARILAFLQSKARLGAEPTFPPLSLPEPDFSYQLHAASPEFPGHSPGEATMFPQGATPGSFPWPPGAARSPALPYLSSATVPLPSPAQQHSPFLAPMQGLDRHYLNLIGHGHPNGLNLHTPQHPPVL
binding [9]: binds

B8: NGN1, yeast two-hybrid fusion (protein, UniProt P70660 1-244)
chain: MPAPLETCISDLDCSSSNSSSDLSSFLTDEEDCARLQPLASTSGLSVPARRSAPALSGASNVPGAQDEEQERRRRRGRARVRSEALLHSLRRSRRVKANDRERNRMHNLNAALDALRSVLPSFPDDTKLTKIETLRFAYNYIWALAETLRLADQGLPGGSARERLLPPQCVPCLPGPPSPASDTESWGSGAAASPCATVASPLSDPSSPSASEDFTYGPGDPLFSFPGLPKDLLHTTPCFIPYH
binding [2]: no binding

B9: NGN1 in mammalian cell culture (Co-IP) (protein, UniProt P70660 1-244)
chain: MPAPLETCISDLDCSSSNSSSDLSSFLTDEEDCARLQPLASTSGLSVPARRSAPALSGASNVPGAQDEEQERRRRRGRARVRSEALLHSLRRSRRVKANDRERNRMHNLNAALDALRSVLPSFPDDTKLTKIETLRFAYNYIWALAETLRLADQGLPGGSARERLLPPQCVPCLPGPPSPASDTESWGSGAAASPCATVASPLSDPSSPSASEDFTYGPGDPLFSFPGLPKDLLHTTPCFIPYH
binding [6]: no binding

Continued, in another order:

binding [7]: binds
B3: endogenous MASH1 (protein, UniProt Q02067 1-231)
chain: MESSGKMESGAGQQPQPPQPFLPPAACFFATAAAAAAAAAAAAQSAQQQQPQAPPQQAPQLSPVADSQPSGGGHKSAAKQVKRQRSSSPELMRCKRRLNFSGFGYSLPQQQPAAVARRNERERNRVKLVNLGFATLREHVPNGAANKKMSKVETLRSAVEYIRALQQLLDEHDAVSAAFQAGVLSPTISPNYSNDLNSMAGSPVSSYSSDEGSYDPLSPEEQELLDFTNWF

binding [6]: binds
B6: MGN, epitope-tagged fusion protein in HEK293 cells (protein, UniProt Q7TS99 1-240)
chain: MSDRLKERKRTPVSHKVIEKRRRDRINRCLNELGKTVPMALAKQSSGKLEKAEILEMTVQYLRALHSADFPRGREKELLAEFANYFHYGYHECMKNLVHYLTTVERMETKDTKYARILAFLQSKARLGAEPTFPPLSLPEPDFSYQLHAASPEFPGHSPGEATMFPQGATPGSFPWPPGAARSPALPYLSSATVPLPSPAQQHSPFLAPMQGLDRHYLNLIGHGHPNGLNLHTPQHPPVL

binding [10]: binds | binding [2]: binds | binding [3]: binds
B7: MGN (MEGANE), yeast two-hybrid fusion (protein, UniProt Q7TS99 1-240)
chain: MSDRLKERKRTPVSHKVIEKRRRDRINRCLNELGKTVPMALAKQSSGKLEKAEILEMTVQYLRALHSADFPRGREKELLAEFANYFHYGYHECMKNLVHYLTTVERMETKDTKYARILAFLQSKARLGAEPTFPPLSLPEPDFSYQLHAASPEFPGHSPGEATMFPQGATPGSFPWPPGAARSPALPYLSSATVPLPSPAQQHSPFLAPMQGLDRHYLNLIGHGHPNGLNLHTPQHPPVL
binding [4]: no binding (condition: in higher levels of 3-AT)

binding [2]: no binding
B10: NGN3, yeast two-hybrid fusion (protein, UniProt P70661 1-214)
chain: MAPHPLDALTIQVSPETQQPFPGASDHEVLSSNSTPPSPTLIPRDCSEAEVGDCRGTSRKLRARRGGRNRPKSELALSKQRRSRRKKANDRERNRMHNLNSALDALRGVLPTFPDDAKLTKIETLRFAHNYIWALTQTLRIADHSFYGPEPPVPCGELGSPGGGSNGDWGSIYSPVSQAGNLSPTASLEEFPGLQVPSSPSYLLPGALVFSDFL

binding [6]: no binding
B11: NGN3 in mammalian cell culture (Co-IP) (protein, UniProt P70661 1-214)
chain: MAPHPLDALTIQVSPETQQPFPGASDHEVLSSNSTPPSPTLIPRDCSEAEVGDCRGTSRKLRARRGGRNRPKSELALSKQRRSRRKKANDRERNRMHNLNSALDALRGVLPTFPDDAKLTKIETLRFAHNYIWALTQTLRIADHSFYGPEPPVPCGELGSPGGGSNGDWGSIYSPVSQAGNLSPTASLEEFPGLQVPSSPSYLLPGALVFSDFL
